Laboratory results taken from paper PMC2572687 (Biochemistry, 2008).

Target: the molecule itself
Experiment: cross-linking

B1: C99, the 99-residue transmembrane C-terminal domain of the human amyloid precursor protein (APP), wild type (domain or fragment)
chain: not shown
In the case of B1, the “stoichiometry N” value is reported as 2.
